The list shows a part of the results.
Experiments:
HSkMC = human skeletal muscle cells; test: cytotoxicity call (relative viability < 0.9); details: 10 µM
HepG2 = test: cytotoxicity call (relative viability < 0.9); details: 10 µM
S. aureus RN4220 = test: growth inhibition call (relative growth <= 0.2); details: 50 µM

SMILES	cytotoxicity call (HSkMC)	cytotoxicity call (HepG2)	growth inhibition call (S. aureus RN4220)
Nc1ncnc2c1c(-c1ccc(Cl)cc1)nn2-c1cccc(-c2cnnn2Cc2cccc(-c3ccccc3)c2)c1	active	inactive	inactive
C[C@H]1CN([C@@H](C)CO)C(=O)c2cc(NC(=O)Nc3ccc(F)cc3)ccc2O[C@@H]1CN(C)S(C)(=O)=O	inactive	inactive	inactive
COCC(=O)N1C[C@]2(C1)CN([C@@H](CO)c1c2c2ccc(cc2n1C)OC)C(=O)CN1CCOCC1	inactive	inactive	inactive
C[C@H](CO)N1C[C@H](C)[C@@H](CN(C)S(C)(=O)=O)Oc2ccc(NS(C)(=O)=O)cc2CC1=O	inactive	inactive	inactive
C[C@@H]1CCCCO[C@@H](CN(C)Cc2ccccc2)[C@H](C)CN([C@@H](C)CO)C(=O)c2cc(NC(=O)Nc3ccc4c(c3)OCO4)ccc2O1	inactive	inactive	inactive
C[C@H]1CN([C@@H](C)CO)C(=O)c2cccc(NS(=O)(=O)c3ccccc3)c2O[C@H]1CN(C)S(C)(=O)=O	inactive	inactive	inactive
C[C@@H]1CN([C@H](C)CO)C(=O)CCCn2nncc2CO[C@H]1CN(C)C(=O)CCCN(C)C	inactive	inactive	inactive
C[C@@H]1CN([C@@H](C)CO)C(=O)Cc2cc(NC(=O)C3CC3)ccc2O[C@H]1CN(C)S(=O)(=O)c1ccccc1	inactive	inactive	inactive
C[C@@H]1CN([C@@H](C)CO)C(=O)c2cc(NC(=O)Cc3ccccc3)ccc2O[C@@H]1CN(C)Cc1ccc(C(F)(F)F)cc1	inactive	inactive	inactive
COc1cccc(NC(=O)N2C[C@@H](O)COC[C@@H]3O[C@H](CC(=O)NC4Cc5ccccc5C4)CC[C@H]32)c1	inactive	inactive	inactive
COc1ccc(NC(=O)N(C)C[C@H]2OCCCC[C@H](C)Oc3ccc(NS(=O)(=O)c4ccccc4)cc3C(=O)N([C@H](C)CO)C[C@@H]2C)cc1	inactive	inactive	inactive
O=C(O)CCCCC1CCSS1 (configuration not stated)	inactive	inactive	inactive
C[C@H](CO)N1C[C@H](C)[C@@H](CN(C)S(C)(=O)=O)OCCCC[C@H](C)Oc2ccc(NS(=O)(=O)c3ccccc3)cc2C1=O	inactive	inactive	inactive
CO[C@@H]1CN(C)C(=O)c2cc(NC(=O)CC(F)(F)F)ccc2OC[C@@H](C)N(C(=O)C2CCOCC2)C[C@H]1C	inactive	inactive	inactive
C[C@@H]1CN([C@H](C)CO)C(=O)c2cccc(NC(=O)Nc3cccc4ccccc34)c2O[C@@H]1CN(C)CC1CCCCC1	inactive	inactive	inactive
COc1ccc(S(=O)(=O)N(C)C[C@@H]2Oc3ccc(NS(=O)(=O)c4ccc(C)cc4)cc3C(=O)N([C@H](C)CO)C[C@@H]2C)cc1	inactive	inactive	inactive
Cc1ccc(S(=O)(=O)Nc2ccc3c(c2)C(=O)N([C@H](C)CO)C[C@@H](C)[C@H](CN(C)C(=O)Nc2ccc4c(c2)OCO4)OCCCC[C@@H](C)O3)cc1	inactive	inactive	inactive
COc1ccc(S(=O)(=O)N(C)C[C@H]2Oc3ccc(NC(=O)CCN4CCOCC4)cc3CC(=O)N([C@@H](C)CO)C[C@H]2C)cc1	inactive	inactive	inactive
C[C@H](CO)N1C[C@H](C)[C@H](CN(C)S(=O)(=O)c2ccc(C#N)cc2)Oc2ncc(C#CCN(C)C)cc2C1=O	inactive	inactive	inactive
CCCNC(=O)[C@@H]1[C@@H](CO)[C@@H]2Cn3c(ccc(-c4ccccc4OC)c3=O)[C@@H]2N1S(C)(=O)=O	inactive	inactive	inactive
C[C@@H]1CN([C@H](C)CO)S(=O)(=O)c2ccc(-c3cccnc3)cc2O[C@@H]1CN(C)C(=O)c1ccc2c(c1)OCO2	inactive	inactive	inactive
C[C@H]1CN([C@@H](C)CO)S(=O)(=O)c2ccc(C#CCN(C)C)cc2O[C@@H]1CN(C)C(=O)CN(C)C	inactive	inactive	inactive
CCC(=O)Nc1ccc(C)c(C)c1	inactive	inactive	inactive
C[C@@H]1CN([C@@H](C)CO)C(=O)c2cc(NC(=O)Nc3ccccc3)ccc2O[C@@H]1CN(C)S(C)(=O)=O	inactive	inactive	inactive
